± gives the standard deviation of the averaged measurements. In all, about 4,000 sequences were measured (“arbitrary fluorescence units”: median about 830, highest 2% from about 6,500 on). The list lacks most of the strong results.
target: RUNX1 (UniProt Q01196); test: RUNX1 binding intensity (PBM fluorescence), RUNX1 alone (arbitrary fluorescence units); higher = stronger binding; details: RUNX1 concentration 2 nM; ETS1 concentration 0 nM
Method: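 gcPBM on 36-bp genomic-derived probes (partner site mutated) containing one RUNX1 site and no ETS1 site. Recombinant human RUNX1 (2 nM) was incubated alone or with ETS1 (25 nM) and detected by anti-RUNX1 antibody fluorescence. Values are medians over 4 replicate spots (not normalised). The probes sit in constant array flanks that are not printed.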
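Also: Full-length recombinant human RUNX1 bound to double-stranded DNA microarray spots, detected with an Alexa488-labelled secondary antibody after the anti-RUNX1 primary, read as scanned spot fluorescence.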

Chain of UniProt Q01196 (Q01196 whole entry): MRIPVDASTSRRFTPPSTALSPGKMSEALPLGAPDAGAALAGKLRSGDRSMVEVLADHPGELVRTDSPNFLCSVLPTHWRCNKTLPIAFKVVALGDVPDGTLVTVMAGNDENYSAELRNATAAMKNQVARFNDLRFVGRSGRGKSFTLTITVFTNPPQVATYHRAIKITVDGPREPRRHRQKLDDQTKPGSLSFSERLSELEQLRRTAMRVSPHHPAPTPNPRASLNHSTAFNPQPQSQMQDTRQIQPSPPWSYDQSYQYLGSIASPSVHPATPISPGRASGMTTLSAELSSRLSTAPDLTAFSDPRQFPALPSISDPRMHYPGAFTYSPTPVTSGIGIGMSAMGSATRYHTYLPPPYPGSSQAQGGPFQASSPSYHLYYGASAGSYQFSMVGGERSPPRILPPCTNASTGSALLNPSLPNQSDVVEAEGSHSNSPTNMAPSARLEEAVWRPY

Row | Sequence | RUNX1 binding intensity
1 | AACAGACAGGGTGTGGCCTCTGCCAAAACCACCATC | 716
2 | AGCTCCACCTGAAACGGCCTGGCCGCAGCCAATCAG | 902
3 | GTGCGGCGGGAATCGCGTTCCCCGGCAACCGCGCCC | 767
4 | GATGCACCTCCGCGGGAGGCAAGCGGTTGCCCTGGG | 694
5 | GACCTTCACCCACAAGAACCACCTCCTCTCAGTAAA | 1950
6 | TGGAGCCGGGGAGACGGCCAAGGTTGCGGGAGTCTC | 649
7 | CCCTTTCTGTGAGGGAGGTTCCAGTTCCCACAGCGG | 742
8 | CCCTTGCTGCCCCCATGGCTCCCCTGAGGTTTTTCG | 1350
9 | GATGACGTCACCACAGTAAGACAACAGCATACCGCT | 835
10 | GCACACTGGAACTCACACCTGAAACCACAGAACCAA | 1660
11 | AGCGTCTATCTCCTCCGACTGCGGCGCGGCTGATAC | 712
12 | GAAGGCAGCCCGGTCACCTTTCTTGGCCCGCAGAGT | 673
13 | TCGGCACTGAAGGGAGGCACGAAACCGCGAGTGGAG | 825
14 | TGCAGGGAGCGCCCACAAAGGGAGGAGGTCGCCGGC | 713
15 | GCGGCCGGGATCTGGAGGGTGAGCGCTGTGGGCAGC | 663
16 | AGGCGCGGTATTAGGCGGACGAGCGAAAGTGGCTGG | 777
17 | GTTGCACGAAACGATGGGTTTTGTGGTATGAACTGC | 829
18 | GTCCCCGCGGTGTCACAGCAATAGCCGTTCTTTGAT | 920
19 | CGAGAAGGAGGTGGTCAAGGAACGAAAGCCGGGAGG | 753
20 | GCGGGAGTGCGGTCTGTGCCGTTCGGGCCAGGAGTT | 1340
21 | GCCCCCAGCCCCGCAGCCTGGCTTTCTTCATGCTCG | 933
22 | CCCCTTCATACGCCTCTCTCTCACCGCGCCGCTCCC | 2190
23 | TCCCCTCTACAGCCACAAGAATGGGAACTGGCTTGT | 808
24 | TTGTACTCTGTGGTTTCATTTCGTGCCCGTAAATGC | 3260
25 | CCCGACTGCCGCCGCTGGTGGCCACCCGCAGGTAGT | 775

Row | Sequence | RUNX1 binding intensity
26 | TTATGTGGTAGGTGAGGTAAAGAAGGCAGTGGAGAA | 807
27 | CGATTCTGGATTGGTCCAATTCCAGCGCCGCAGCCC | 830
28 | GACAGTTTTCGGGCCTAGTTTGCGGCTGCTCCTGCC | 891
29 | CGACGCGCGGCAGGAGTTCGCGCGACGACCGCGGGG | 692
30 | ACTCTGCGGCCCAGCTGCTTCTGTGCACAGGCAATA | 791
31 | GAGAACTTTCGGTGCGCTCCCCGGGACTGCGGTCCC | 697
32 | CTCCAAGCCCACAGAGCACCCCTTGCTGCCCGGACA | 960
33 | GGCGCCGCGGCAATCTGTACACACCGCAGCGCGGCC | 837
34 | GGCGGTGACCGTAAGAGCTGAGTCACCGCAGGCGAC | 765
35 | CACCCGCCTCTACCCGCGGCCCCGGGAGCTCCTTAA | 1090
36 | CCTTAGCACAGACCACCATCTACGGGAATTCCTAAG | 912
37 | CAAACATGTGGTCTCCGAGCACGAAAATGCTAAAAT | 816
38 | GAGGCCGCAAGGAGACAGAACTACACCTCCTCCGTC | 823
39 | AGTGAGCTTCGTCCTGAGGCCTGAGGCAACCACAGG | 669
40 | CCCTGGACGGGAATCGGCGGCCAGATCCGCAAGCCC | 718
41 | CCTGGGGGGCCGTAAGCCCCGCTGCGGCCCCAGCCC | 830
42 | AGAAACCGCTGGGCGGAGCAGCGGGACGAAGCTGCA | 667
43 | TAGGGGCTGCGGGTCCGGGCGAAAGTGGGGCAGGCG | 634
44 | CGGCGCGGCGCACGTTGCTGCGGTAGGACGTGCCCG | 874
45 | AATATGCTGTATGTCATGCTTAAAAAGCCACAAAAC | 832
46 | ATCAGTCAACCTCCCCCACTCCCTCCCACAAAGAAA | 1220
47 | CCTGCGGGGGGTGCGTGGGCGGGACTCCCGGCTCCT | 915
48 | CTTTGTGGCTTTTTCTTGGTAGTTGGGCAGGGAGCC | 1720
49 | GGCCTCGGCCACATACGGGTTCCACCGCAGATTCGG | 792
50 | CTCCCCCAGCACAGCCTCTGCCACCGCTGCCTTTCC | 1190

Row | Sequence | RUNX1 binding intensity
51 | CTGCGGCGGGGGCTGACATCACAGCAAGGACACTGT | 744
52 | ACTTGACTGCCTGTGGGGTGTGTGGTGTCTGCACTT | 822
53 | GCCCCCAACTCCCACACACAGCCCCTTCGTCCTCCC | 1400
54 | CCAAGGCTATGCTTTTTTTTGGCAAGCCACATCCAA | 740
55 | CCCACTCCACTGCCGCCACCGCCGCAGCCGCCGCTG | 1230
56 | TCGAGAAACCGCCCCCGCCTCAGCAAGGGGTAGGCG | 773
57 | CTGCAGATGCATCTCCTTTTTGTGGTAGCAAGCGTG | 799
58 | CCGGAGGTTGCGGGAGCTGAGGGATGAAACAGGGAC | 936
59 | ATAAGGAGGCCGGCGCACTGATTTGTGGTTGTTGCC | 720
60 | TTGGAGGCGGCAACAGGCACCGAAAGCGGTGGAAGT | 734
61 | AAAGGGACGTTCGCGGGAGGTCAAAACCACCGGGGC | 732
62 | CTGACGCATTCCCGGCCTTTGCGGTTGATCGGTCAT | 3000
63 | TGCGAGCACCCGGGAGCCGCTTGCGGGCTCCCGGAG | 641
64 | CTGGCCGTGGCGTACGGGAGCTGTGGGGCCGTCCCC | 728
65 | AGGGGCTTGTGGGAACCGGCCGAAACCGGCTGTGGA | 639
66 | GTGAACTCCCTCCCCCACTGCCTATTTTTACCGCAG | 1930
67 | CAGGCCTGTGATCTCCTCTGAGTGGTTTTCTTGGCC | 747
68 | GATCTTGCTGCAACCCCCCGAGACAACCACCGAACA | 795
69 | GGCGCTAGGCCTCCGGATCGCGGTGGGCGGAGTTCA | 703
70 | TCATGCTGCTCCCTGCCCAACCCGCAGTTCCGATAA | 1240
71 | TGCGCCTGCGGGAGGGAGCAGTGCCGGGTACGGTGC | 769
72 | CCAGCTGAAAGCCGGTCAGGGGGAACCGCGGCGGGG | 730
73 | TCAGAACTTGGTTTTGAGAGTTTACTGTTTTCTTGA | 785
74 | ACTGTGGTCAGACCAAAGGAAGAAGTTCCCAACCTC | 943
75 | TTTTTTGCGCCCGCTTCAAACATGGCGGTCAAGCCC | 882

Row | Sequence | RUNX1 binding intensity
76 | CAGTCCAGAATCCCACGCTCCCTAGCCCGCGGTGAG | 760
77 | GGCCTGAAGCGCTCTCGTTGGCCCTGCGGCGCTGGA | 788
78 | GTGGCTATGGGGAGTGGGGTGCGGTTTCTGCCGGGG | 1430
79 | GGTTCGCGGCTTACGGGACATTTGTACCGCAGGGGG | 787
80 | GACTGCGGCTCTTCCTCGGGCAGCTGAAGCGGCGCA | 1070
81 | CGGCCCCCGGGGTGGTTAGCGCTTACGGGGTCGAAG | 714
82 | CGCCTCGCCTCTTGCCGCCAGCGCCCGCAGGACCCG | 1050
83 | GACCCATTGCCTGGCTCAGGAGCCCACAGCCCTGGG | 818
84 | TGGGGTTTTCTGGGGAGAAACTTAGCCCTACCACAC | 666
85 | TGGATATACCCGCAGGTCCAGAATCGTTTTCGGACC | 882
86 | CATCTCGGGAACGGACAGCAAGATCCCGCATTAACA | 919
87 | AAGGCTGTGGGTAAGGCGACATTGCCTGCCCCCGGG | 737
88 | TTCTCATTTGTGGGTATCTGACAACAACCTCCTCTC | 1050
89 | CTCTTTGTGGCTCCCGCGAGAGTCCGCCTTCGGCCG | 1030
90 | GGCCGTACGCCATCTTGCTGGTTTGCGGCCGGTCTT | 771
91 | GCCCCGCCCCCGGGCGCCCAGCCGCGGTCCCAGCGA | 816
92 | AACAAACCTGATGGGGTTCCCACCCGCAATCTTGTC | 975
93 | GGAACCCACATAATCCGCCAAGGGGTTCAGGTGCGA | 871
94 | TAGCCACTAACCTGAAACGTTAAACCACAGCTCCGT | 1120
95 | TGATGCACTTGCTGAGGGCCCGCATGTGGTAAACAC | 695
96 | ATTTTGCGGCCGCCGTAAAGCGCGTATGCGCGGCGT | 865
97 | AACACTATTCCCTTTCTTGCTGCCCACATTTTAACA | 2580
98 | GTCACCATTCCCGGGCCTCCGCGGTGTCCCCACCCC | 1060
99 | TGTCTCTCACCACAAAATCCACCTCCTATGATGTTT | 3020 ± 950
100 | CCGGGAAGGCGCAAGCAGCAGAGACGCCGCAAGGCC | 644

Row | Sequence | RUNX1 binding intensity
101 | CAAGGAGGCTCCCTGCGTGGGGCCGCAGAGCGAGTC | 666
102 | CACGGGGCGGTCAACCCCAGGAGGACATATCGCTTC | 829
103 | GGCCAAACCACTTTATCGTGGAGCCAATTGCCTCAG | 861
104 | CAACGACACCAAACCACCACCACTTGCTTGAATCTG | 1010
105 | AGCGCGAGGCCGCAGCGGGGAGTGACCGGGAGTGGC | 675
106 | GGATCGGCCTGCGGTGTGTCTCATTTGCTGTAGGTA | 943
107 | TGCTGCGAGCCACAAACATGGTGTCCGTCGGGCCCG | 674
108 | TCCTTAATGGTTTCGGCGGCAGGGACCGCAGCGACG | 737
109 | GTTCTTATGCTGTGGCTCGTTTGTGGTTACTGACAT | 2360
110 | TTGGTTTCAGTGGGTTTTGGCCAGCTCCCTTACCAG | 730
111 | CGTGTTTTGTGGCTGTGTTCTGTCCAGTCAGTTGTT | 947 ± 57
112 | CTTACTATATTACCGCCGGTACACATGCGCCCGACA | 965
113 | CGAGAACGGCGCCACAGAGGAACCTGAAACAAGCCA | 734
114 | TCAGGAGCCGCGGTCGGGCGGGGCTTACGGGAGCAA | 799
115 | GATGTGGGCTTGCGCGCAAACAGCCCGTAAATGAGG | 744
116 | CTGCTGCGGGGAGTTGCTAGTACATGAAAAGAGGTC | 812
117 | GAGGTGGTACCGCAGGCCGCGTTGACCGAAAAGTAG | 1110
118 | CCAGGCGGGAACCGCAGTGTTCCAGGGACCGTTCTG | 1320
119 | GGGATCTGGGTTGTGGGGTGCAGGATCTGGGGTGCT | 705
120 | AGAAACACCCTGCCCAGCCACCTGACCACAAGGCAC | 1280
121 | CATTGTGGGCGCTGTAGTCCAGCTGGAACCTGTTTG | 760
122 | TACCATAAAACGTCCCTGGGGAAACCGCCCACTCCC | 851
123 | TACAGCACCGCATATGGCTGAGGGAGGAGCAAGGGA | 664
124 | ACTGCCGCAACTAGGGGCAGCTCTACTCCCGGTGCC | 776
125 | TCTGGATTGCCTGTGGGGCTCTCCCACAAGCAGTAC | 690

Source: the supplement of paper PMC10681739
